# Assay results taken from the supplement of paper PMC8728848.
# The other results are listed elsewhere or left out.
# B1: MAL-II (Maackia amurensis), P93248 (protein)
# chain: ATSNSKPTQVLLATFLTFFFLLLNNVNSSDELSFTINNFVPNEADLLFQGEASVSSTGVLQLTRVENGQPQQYSVGRALYAAPVRIWDNTTGSVASFSTSFTFVVKAPNPTITSDGLAFFLAPPDSQIPSGRVSKYLGLFNNSNSDSSNQIVAVEFDTYFGHSYDPWDPNYRHIGIDVNGIESIKTVQWDWINGGVAFATITYLAPNKTLIASLVYPSNQTSFIVAASVDLKEILPEWVRVGFSAATGYPTQVETHDVLSWSFTSTLEANSDAATENNVHIARYTA
# Experiments:
# Assay in all cases: glycan array binding signal (z-score within array); higher = stronger binding
# Conditions in all cases: glycan notation: IUPAC condensed, linker removed
# [1] = molecular target: Gal(b1-4)GlcNAc(b1-2)Man(a1-3)[GlcNAc(b1-4)][Gal(b1-4)GlcNAc(b1-2)Man(a1-6)]Man(b1-4)GlcNAc(b1-4)GlcNAc
# Summary of the method: (§1)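 From the Consortium for Functional Glycomics database, 3228 arrays were curated, keeping only those whose protein sequence was available. Binding is given as a within-array Z-score averaged across arrays sharing a protein sequence and across linkers. Negative Z-scores can be read as non-binding.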
# [2] = molecular target: Gal(b1-4)GlcNAc(b1-2)Man(a1-3)[Man(a1-6)]Man(b1-4)GlcNAc(b1-4)GlcNAc
# Summary of the method: as §1
# [3] = molecular target: Gal(b1-4)GlcNAc(b1-2)Man(a1-6)Man(b1-4)GlcNAc(b1-4)GlcNAc
# Summary of the method: as §1
# [4] = molecular target: Gal(b1-4)GlcNAc(b1-2)Man(a1-6)[GlcNAc(b1-2)Man(a1-3)]Man(b1-4)GlcNAc(b1-4)GlcNAc
# Summary of the method: as §1
# [5] = molecular target: Gal(b1-4)GlcNAc(b1-2)Man(a1-6)[Man(a1-3)]Man(b1-4)GlcNAc(b1-4)GlcNAc
# Summary of the method: as §1
# [6] = molecular target: Gal(b1-4)GlcNAc(b1-2)[Gal(b1-4)GlcNAc(b1-4)]Man(a1-3)[Gal(b1-4)GlcNAc(b1-2)Man(a1-6)]Man(b1-4)GlcNAc(b1-4)GlcNAc
# Summary of the method: as §1
# [7] = molecular target: Gal(b1-4)GlcNAc(b1-2)[Gal(b1-4)GlcNAc(b1-4)]Man(a1-3)[Gal(b1-4)GlcNAc(b1-2)[Gal(b1-4)GlcNAc(b1-6)]Man(a1-6)]Man(b1-4)GlcNAc(b1-4)GlcNAc
# Summary of the method: as §1
# [8] = molecular target: Gal(b1-4)GlcNAc(b1-2)[Gal(b1-4)GlcNAc(b1-4)]Man(a1-3)[GlcNAc(b1-4)][Gal(b1-4)GlcNAc(b1-2)Man(a1-6)]Man(b1-4)GlcNAc(b1-4)GlcNAc
# Summary of the method: as §1
# [9] = molecular target: Gal(b1-4)GlcNAc(b1-2)[Gal(b1-4)GlcNAc(b1-4)]Man(a1-3)[GlcNAc(b1-4)][Gal(b1-4)GlcNAc(b1-2)[Gal(b1-4)GlcNAc(b1-6)]Man(a1-6)]Man(b1-4)GlcNAc(b1-4)GlcNAc
# Summary of the method: as §1
# [10] = molecular target: Gal(b1-4)GlcNAc(b1-2)[Gal(b1-4)GlcNAc(b1-6)]Man(a1-6)[Gal(b1-4)GlcNAc(b1-2)Man(a1-3)]Man(b1-4)GlcNAc(b1-4)GlcNAc
# Summary of the method: as §1
# [11] = molecular target: Gal(b1-4)GlcNAc(b1-2)[Gal(b1-4)GlcNAc(b1-6)]Man(a1-6)[Gal(b1-4)GlcNAc(b1-2)Man(a1-3)]Man(b1-4)GlcNAc(b1-4)[Fuc(a1-6)]GlcNAc
# Summary of the method: as §1
# [12] = molecular target: Gal(b1-4)GlcNAc(b1-2)[Gal(b1-4)GlcNAc(b1-6)]Man(a1-6)[GlcNAc(b1-4)][Gal(b1-4)GlcNAc(b1-2)Man(a1-3)]Man(b1-4)GlcNAc(b1-4)GlcNAc
# Summary of the method: as §1
# [13] = molecular target: Gal(b1-4)GlcNAc(b1-2)[Gal(b1-4)GlcNAc(b1-6)]Man(a1-6)[GlcNAc(b1-4)][Gal(b1-4)GlcNAc(b1-2)[Gal(b1-4)GlcNAc(b1-4)]Man(a1-3)]Man(b1-4)GlcNAc(b1-4)[Fuc(a1-6)]GlcNAc
# Summary of the method: as §1
# [14] = molecular target: Gal(b1-4)GlcNAc(b1-3)Gal(b1-3)GalNAc
# Summary of the method: as §1
# [15] = molecular target: Gal(b1-4)GlcNAc(b1-3)Gal(b1-3)GlcNAc
# Summary of the method: as §1
# [16] = molecular target: Gal(b1-4)GlcNAc(b1-3)Gal(b1-4)Glc
# Summary of the method: as §1
# [17] = molecular target: Gal(b1-4)GlcNAc(b1-3)Gal(b1-4)GlcNAc
# Summary of the method: as §1
# [18] = molecular target: Gal(b1-4)GlcNAc(b1-3)Gal(b1-4)GlcNAc(b1-2)Man(a1-3)[Gal(b1-4)GlcNAc(b1-3)Gal(b1-4)GlcNAc(b1-2)Man(a1-6)]Man(b1-4)GlcNAc(b1-4)GlcNAc
# Summary of the method: as §1
# [19] = molecular target: Gal(b1-4)GlcNAc(b1-3)Gal(b1-4)GlcNAc(b1-2)Man(a1-3)[Gal(b1-4)GlcNAc(b1-3)Gal(b1-4)GlcNAc(b1-2)Man(a1-6)]Man(b1-4)GlcNAc(b1-4)[Fuc(a1-6)]GlcNAc
# Summary of the method: as §1
binder,measurement,setting,value
B1,glycan array binding signal (z-score),[1],-0.267
same,glycan array binding signal (z-score),[2],-0.218
same,glycan array binding signal (z-score),[3],-0.215
same,glycan array binding signal (z-score),[4],-0.206
same,glycan array binding signal (z-score),[5],-0.196
same,glycan array binding signal (z-score),[6],-0.085
same,glycan array binding signal (z-score),[7],-0.229
same,glycan array binding signal (z-score),[8],-0.183
same,glycan array binding signal (z-score),[9],-0.114
same,glycan array binding signal (z-score),[10],-0.199
same,glycan array binding signal (z-score),[11],-0.175
same,glycan array binding signal (z-score),[12],-0.145
same,glycan array binding signal (z-score),[13],-0.199
same,glycan array binding signal (z-score),[14],-0.039
same,glycan array binding signal (z-score),[15],-0.184
same,glycan array binding signal (z-score),[16],-0.219
same,glycan array binding signal (z-score),[17],-0.223
same,glycan array binding signal (z-score),[18],0.101
same,glycan array binding signal (z-score),[19],0.489
